# In paper PMC4336329 (PLoS ONE, 2015):
# About 2,200 (0.71%) of roughly 310,000 compounds showed an effect of 50% or more. The effect is printed as a negative number. This is one part of the list.
# Molecular target: human ether-à-go-go-related gene (hERG) potassium channel (human, UniProt Q12809)
# Assay: primary screen, population patch clamp on CHO cells stably expressing hERG
# human ether-à-go-go-related gene (hERG) potassium channel, sequence (Q12809 whole entry, looked up): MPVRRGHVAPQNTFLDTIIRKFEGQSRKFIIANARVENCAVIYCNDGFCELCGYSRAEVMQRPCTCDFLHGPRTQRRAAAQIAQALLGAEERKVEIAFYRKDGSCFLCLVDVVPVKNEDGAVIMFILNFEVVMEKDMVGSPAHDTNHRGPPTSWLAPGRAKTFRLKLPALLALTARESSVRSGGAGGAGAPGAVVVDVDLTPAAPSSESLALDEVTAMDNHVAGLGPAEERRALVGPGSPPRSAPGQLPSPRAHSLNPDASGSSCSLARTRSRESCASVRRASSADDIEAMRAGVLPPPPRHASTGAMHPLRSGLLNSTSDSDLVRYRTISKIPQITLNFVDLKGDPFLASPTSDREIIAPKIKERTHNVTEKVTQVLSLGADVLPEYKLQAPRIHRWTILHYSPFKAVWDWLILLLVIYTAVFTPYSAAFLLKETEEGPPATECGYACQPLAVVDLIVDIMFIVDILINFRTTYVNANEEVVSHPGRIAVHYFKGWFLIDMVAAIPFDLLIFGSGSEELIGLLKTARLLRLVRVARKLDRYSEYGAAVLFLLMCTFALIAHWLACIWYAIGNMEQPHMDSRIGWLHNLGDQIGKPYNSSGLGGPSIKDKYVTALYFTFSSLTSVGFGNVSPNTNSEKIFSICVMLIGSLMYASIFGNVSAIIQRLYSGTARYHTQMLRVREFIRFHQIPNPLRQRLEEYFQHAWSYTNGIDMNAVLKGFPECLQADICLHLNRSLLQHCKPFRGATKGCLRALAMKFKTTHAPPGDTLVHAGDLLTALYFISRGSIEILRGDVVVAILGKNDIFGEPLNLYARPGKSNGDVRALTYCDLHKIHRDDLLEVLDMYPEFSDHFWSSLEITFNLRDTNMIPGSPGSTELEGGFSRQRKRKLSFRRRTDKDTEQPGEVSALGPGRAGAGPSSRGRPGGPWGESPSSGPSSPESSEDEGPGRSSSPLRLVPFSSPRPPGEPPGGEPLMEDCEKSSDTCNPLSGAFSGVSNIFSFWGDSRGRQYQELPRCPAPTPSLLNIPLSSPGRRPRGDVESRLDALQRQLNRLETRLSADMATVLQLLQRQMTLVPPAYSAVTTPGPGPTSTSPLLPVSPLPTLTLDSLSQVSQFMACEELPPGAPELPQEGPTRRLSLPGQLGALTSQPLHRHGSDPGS
row,SMILES,"hERG current change (%, negative = inhibition) at 1uM [%]"
1,CN1CCN(C(=O)COc2ccc(S(=O)(=O)NC3CCCCC3)cc2Cl)CC1,15.3
2,COC(=O)c1cn(NC(=O)Cc2ccccc2Br)c(=O)c2ccccc12,5.95
3,COc1cc(CNc2nc3ccccc3[nH]2)cc(OC)c1OC.Cl,13.1
4,CCCC(=O)NCc1cc(-c2nn(C)c(=O)c3ccccc23)ccc1OC,-1.69
5,O=C(c1ccc(S(=O)(=O)N2CCCCC2)cc1)N1CCN(c2ccccc2F)CC1,13.8
6,COc1cc(C(=O)N2CCN(c3ncnc4sc(C)c(C)c34)CC2)cc(OC)c1OC,-18.2
7,COc1ccc(C(=O)Nc2cccc3c2C(=O)NC3=O)cc1S(=O)(=O)N1CCOCC1,-3.41
8,Cc1onc(-c2ccccc2)c1-c1nnc(-c2ccccc2C(F)(F)F)o1,9.8
9,Cc1c(NC(=O)c2ccc(N(Cc3ccccc3)S(C)(=O)=O)cc2)c(=O)n(-c2ccccc2)n1C,15.1
10,CCn1cc(Cl)c(C(=O)NNC(=O)CCn2ccc([N+](=O)[O-])n2)n1,14.8
11,COC(=O)/C(=C/c1ccco1)NC(=O)c1ccccc1,4.04
12,Cn1c(SCC(=O)NCc2ccc(F)cc2)nc2c([nH]c3ccccc32)c1=O,8.91
13,OCCN1CCN(c2cc(C(F)(F)F)nc3ccccc23)CC1,9.3
14,CCNC(=S)N(Cc1ccc2c(c1)OCO2)C1CC(=O)N(c2ccc(OC)cc2)C1=O (stereo not shown),5.31
15,Cc1ccc(-n2nc3ccc(N)cc3n2)c(C)c1,20.9
16,Cc1cc(C)c2sc(NC(=O)C3CC3)nc2c1,4.81
17,COc1cc(C)c(C(C)C)cc1S(=O)(=O)N1CCN(C)CC1,11.7
18,O=C(Cc1c(O)c2ccccc2oc1=O)c1ccc(C(F)(F)F)cc1,7.79
19,COc1ccc2cc(C(C)C(=O)N3CCC(C)CC3)ccc2c1 (stereo not shown),-21.8
20,COc1ccc(Cl)cc1NC(=O)CC(C)c1ccccc1 (stereo not shown),10.1
21,CC(=O)N(C1=NCCCS1)c1ccc(Cl)cc1,15.2
22,CNC(=O)C1CCC(=O)N1Cc1ccc(C)cc1 (stereo not shown),9.4
23,O=C(NCC12CC3CC(CC(C3)C1)C2)c1nc2ncccn2n1,-15.9
24,COc1ccccc1NS(=O)(=O)c1cccc(NC(=O)c2ccc3ccccc3n2)c1,16
25,O=C(COC(=O)c1ccccc1NCCO)NCCc1ccccc1,11.7
26,Cc1[nH]c2ccc(C(=O)O)cc2c1C,10.2
27,N#CC(C#N)=Cc1ccc(NC(=O)c2ccc(Br)cc2)cc1,9.08
28,O=C(c1ccc(C23CC4CC(CC(C4)C2)C3)o1)N1CCOCC1,-18.5

row,SMILES,"hERG current change (%, negative = inhibition) at 1uM [%]"
1,CC1CCc2c(C(=O)Nc3ccccn3)csc2C1 (stereo not shown),6.82
2,Cc1ccnc(NS(=O)(=O)c2cc([N+](=O)[O-])ccc2C)c1,8.83
3,S=C(NCc1ccccc1)NCc1ccc(CNC(=S)NCc2ccccc2)cc1,13.1
4,COc1cccc(NC(=O)CSCC(=O)O)c1,5.38
5,O=C(CCNS(=O)(=O)c1ccc(Cl)cc1)NCc1ccccn1,-0.0436
6,Cc1nc2sc(C(c3cccs3)N3CCOCC3)c(O)n2n1 (stereo not shown),-6.84
7,O=C1CCCc2c1cc(C(=O)Nc1ccc(Br)cn1)c(=O)n2-c1ccccc1,12
8,Cc1ccc(-c2nnc(OCC3CCCO3)c3ccccc23)cc1 (stereo not shown),2.05
9,COc1ccc(C(c2c(O)nc[nH]c2=O)c2c(O)nc[nH]c2=O)cc1,18.6
10,Nc1nc(=S)[nH]c2c1C1(CCCCC1)Cc1ccccc1-2,4.85
11,Cc1noc(C)c1S(=O)(=O)N1CCCC(C(=O)NCCc2ccccc2)C1 (stereo not shown),6.36
12,COc1ccc2cc(C3(C)NC(=O)N(CC(=O)Nc4c(C)n(C)n(-c5ccccc5)c4=O)C3=O)ccc2c1 (stereo not shown),0.395
13,COc1cccc(C(C(=O)NC(C)(C)C)N(CC(C)C)C(=O)CCC(=O)Nc2cc(C)on2)c1OC (stereo not shown),7.63
14,CC1(C)Cc2c(c(-c3ccccc3)nc(N3CCOCC3)c2C(N)=O)CO1,1.03
15,Cc1ccc(N/C(=N/S(=O)(=O)c2cccs2)c2ccccc2)c(C)c1,17.8
16,CC(C)CC(N)c1cn([C@@H](CCC(=O)O)C(=O)N2CCNCC2)nn1.Cl (stereo partly shown),17
17,CCN(CC)S(=O)(=O)c1cnccc1N1CCN(c2cccc(Cl)c2)CC1,4.99
18,COc1cc(C(=O)NC(C)c2cnn(-c3ccccc3C)c2C)cc(OC)c1OC (stereo not shown),-24.8
19,COc1ccccc1N(C(=O)Cn1nnc(-c2ccc(C)o2)n1)C(C(=O)NC1CCCC1)c1ccncc1 (stereo not shown),19.4
20,CCOc1ccc(C2/C(=C(/O)c3ccc4c(c3)CC(C)O4)C(=O)C(=O)N2CCCn2ccnc2)cc1OCC (stereo not shown),22.3
21,CCC(=O)NC(=S)Nc1cccc(Cl)c1N1CCCC1,9.89
22,COc1ccc(N2C(=O)C(CC(=O)Nc3ccccc3)N(Cc3ccc4c(c3)OCO4)C2=O)cc1 (stereo not shown),15.6
23,CCOc1ccc(/C=N/OCC(=O)NCc2ccco2)cc1,-10
24,O=[N+]([O-])c1ccc(OCCCCCN2CCOCC2)cc1,-24.9
25,COc1cc(/C=C2/C(=N)N3N=C(CC(=O)N4CCOCC4)SC3=NC2=O)ccc1OC(C)c1ccccc1 (stereo not shown),13.9
26,Cc1cc2cc(CCNC(=O)c3cccc([N+](=O)[O-])c3)c(=O)[nH]c2cc1C,-37.6
27,CCOc1ccc(N=Cc2c(O)n(Cc3ccccc3)c(=S)[nH]c2=O)cc1,12.5
